# Screen size: about 310,000 compounds; about 2,200 (0.71%) showed an effect of 50% or more. The effect is printed as a negative number. This is one part of the list.
# Target: human ether-à-go-go-related gene (hERG) potassium channel (human, UniProt Q12809)
# Assay: primary screen, population patch clamp on CHO cells stably expressing hERG
# Sequence of human ether-à-go-go-related gene (hERG) potassium channel (Q12809 whole entry, looked up): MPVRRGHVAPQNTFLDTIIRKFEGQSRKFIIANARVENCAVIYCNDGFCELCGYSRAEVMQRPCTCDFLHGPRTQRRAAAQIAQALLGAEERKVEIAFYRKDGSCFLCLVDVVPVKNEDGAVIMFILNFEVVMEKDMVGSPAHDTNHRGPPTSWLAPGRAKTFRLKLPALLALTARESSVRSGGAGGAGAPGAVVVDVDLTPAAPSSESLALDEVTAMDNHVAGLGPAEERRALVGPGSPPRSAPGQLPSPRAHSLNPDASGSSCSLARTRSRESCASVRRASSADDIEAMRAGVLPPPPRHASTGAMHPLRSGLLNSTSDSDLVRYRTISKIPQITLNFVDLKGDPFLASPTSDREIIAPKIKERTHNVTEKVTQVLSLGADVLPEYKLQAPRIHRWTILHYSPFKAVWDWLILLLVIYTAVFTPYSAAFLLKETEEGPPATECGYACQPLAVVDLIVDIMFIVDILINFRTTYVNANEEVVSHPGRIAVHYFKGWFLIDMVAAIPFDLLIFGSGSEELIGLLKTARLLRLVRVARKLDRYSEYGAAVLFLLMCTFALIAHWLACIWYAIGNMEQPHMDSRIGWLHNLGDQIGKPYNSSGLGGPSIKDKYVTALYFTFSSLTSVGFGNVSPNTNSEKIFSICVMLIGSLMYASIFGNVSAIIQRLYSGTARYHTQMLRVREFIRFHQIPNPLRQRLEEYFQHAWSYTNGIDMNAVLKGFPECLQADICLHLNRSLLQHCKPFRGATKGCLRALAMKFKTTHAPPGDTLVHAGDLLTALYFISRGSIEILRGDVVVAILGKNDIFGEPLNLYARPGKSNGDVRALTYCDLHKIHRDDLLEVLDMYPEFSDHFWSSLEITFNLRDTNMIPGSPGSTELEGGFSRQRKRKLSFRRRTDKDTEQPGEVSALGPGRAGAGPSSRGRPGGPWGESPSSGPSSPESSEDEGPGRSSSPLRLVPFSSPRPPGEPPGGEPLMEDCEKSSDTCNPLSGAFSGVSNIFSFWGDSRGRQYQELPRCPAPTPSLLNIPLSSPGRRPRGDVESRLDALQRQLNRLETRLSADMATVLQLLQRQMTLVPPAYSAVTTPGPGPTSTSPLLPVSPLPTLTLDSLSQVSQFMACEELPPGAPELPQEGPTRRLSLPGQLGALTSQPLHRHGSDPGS
row,Structure (SMILES),"hERG current change (%, negative = inhibition) at 1uM"
1,CCC(C)NC(=O)C1CCC(=O)N(c2ccc3c(c2)OCO3)C1c1ccc(OC)cc1 (stereo not drawn),12.4%
2,Clc1ccc(CNc2ccc(CNc3ncn[nH]3)cc2)c(Cl)c1,10%
3,CCOC(=O)C(=O)N=Nc1c(O)[nH]c2ccccc12,1.57%
4,N#CC1=C(N)C(C#N)(C#N)[C@H](c2ccsc2)[C@H]2COCC=C12,7.06%
5,O=C(Nc1ccc(Oc2ccc(S(=O)(=O)N3CCOCC3)cn2)cc1)c1ccco1,-2.13%
6,CC(C)(C)c1cc(C(=O)N/N=C/c2ccc([N+](=O)[O-])s2)n[nH]1,8.78%
7,C=CCN(C(=O)CCC(=O)Nc1cc(C)on1)C(C(=O)NC1CCCC1)c1ccc(Cl)cc1 (stereo not drawn),-12.1%
8,COc1ccc(N2CCN(C3CC(=O)NC3=O)CC2)cc1 (stereo not drawn),9.22%
9,COc1ccc2oc(-c3ccc(C)c(NC(=O)CSc4ccc(Cl)cc4)c3)nc2c1,6.01%
10,CCc1ccc(NC(=O)c2ccccc2NC(=O)C2CCCO2)cc1 (stereo not drawn),-4.41%
11,CCc1ccc(NC(=O)CSc2ccccn2)cc1,8.26%
12,COc1ccc(-c2nc(N=Nc3ccc(O)cc3)n[nH]2)cc1,7.13%
13,Cc1cc2c(N3CCCCC3C)ncnc2s1 (stereo not drawn),1.16%
14,COc1ccc(OC)c(/C=C/C(=O)Nc2ccc(OC)nc2)c1,6.55%
15,Cc1nc(N)ncc1C(=O)Nc1ccccc1,9.29%
16,CCOC(=O)C1(CCOc2ccccc2)CCN(Cc2ccc(O)c(OC)c2)CC1,-69.9%
17,COc1ccccc1-c1ccc(SCc2ccc([N+](=O)[O-])cc2)nn1,14.4%
18,CSc1ccccc1NC(=O)CN(c1cccc(C)c1)S(C)(=O)=O,7.26%
19,CSCCC(=O)Nc1ccc(C(C)=O)cc1,8.92%
20,COc1cccc(CNC(=O)C2CCN(S(=O)(=O)c3cccc4cccnc34)CC2)c1,7.36%
21,CCCNC(=O)[C@H](C)NC(=O)c1ccc(Br)cc1,8.02%
22,CC1CCCC(NC(=O)CCS(=O)(=O)c2cc3c(cc2Cl)NC(=O)CO3)C1C (stereo not drawn),-9.05%

row,Structure (SMILES),"hERG current change (%, negative = inhibition) at 1uM"
1,Cc1ccc(NC(=O)CCS(=O)(=O)c2cccc3nonc23)cc1,-2.26%
2,C=C(C)[C@@H]1CC=C(CN2CCC(CCOC)(C(=O)OCC)CC2)CC1,-15.4%
3,NS(=O)(=O)c1cc(C(=O)OCC(=O)N2CCOCC2)ccc1Cl,16.4%
4,O=C(COC(=O)c1ccc(C(F)(F)F)cc1)Nc1cccc(S(=O)(=O)N2CCCCC2)c1,0.824%
5,CCC(=O)NNc1ncnc2c1cnn2-c1cccc(C)c1,12.5%
6,O=C1CN(O)C=C2N=c3ccccc3=C2N1c1ccc([N+](=O)[O-])cc1,-3.04%
7,O=C(Nc1ccc(F)cc1F)C1CCN(S(=O)(=O)c2cccnc2)CC1,20.2%
8,CC1CCCCN1C(=S)NCCc1ccccc1 (stereo not drawn),3.57%
9,CCOc1ccc(C(=O)COC(=O)CC)cc1,0.968%
10,O=C(NCc1ccc(OC(F)(F)F)cc1)C1CC(c2c(Cl)cccc2Cl)=NO1 (stereo not drawn),14.7%
11,C=CCn1cnc2scc(-c3ccc(OC)cc3)c2c1=O,13.3%
12,N#C/C(=N\Nc1ccc([N+](=O)[O-])cc1)C(N)=S,11%
13,CSc1nc2sc(-c3ccccc3)cc2c(=O)n1N,14.4%
14,CC(=O)CCc1ccc2oc(C(=O)O)c(C)c2c1,-3.41%
15,COc1ccccc1N1CCN(S(=O)(=O)c2cc(C(F)(F)F)cc(C(F)(F)F)c2)CC1,14.2%
16,CN(C)Cc1c(C(=O)N/N=C/c2ccccc2OCc2ccc(F)cc2)nnn1-c1nonc1N,14%
17,CCCCCOC(=O)c1c(N)n(CCOC)c2nc3ccccc3nc12,-17.5%
18,COc1ccc(CNC(=O)CN2CCC(C(=O)c3ccc(OC)cc3)CC2)cc1,-15.3%
19,Cc1ccc(-n2nc(C)c3c(C)c(CCC(=O)NCc4ccccc4)c(C)nc32)cc1,14.3%
20,CCOC(=O)c1sc2ncn(/N=C/c3ccc(O)cc3)c(=O)c2c1C,18.3%
21,COc1ccc(-c2csc(NC(C)c3nc4cc(C(=O)NCCCO)ccc4n3Cc3ccc(C)cc3)n2)cc1 (stereo not drawn),8.77%
22,C(=C(c1ccccc1)c1ccccc1)c1ccccn1,12.8%

row,Structure (SMILES),"hERG current change (%, negative = inhibition) at 1uM"
1,CC(C)NC(=O)c1ccccc1NC(=O)Cc1ccc(Cl)cc1,-0.471%
2,COc1cc2c(cc1NC(=S)Nc1ccccc1C)oc1ccccc12,4.36%
3,COc1cc([C@@H]2c3cc4c(cc3[C@H](O)[C@H]3COC(=O)[C@H]23)OCO4)cc(OC)c1OC,-14.6%
4,O=C(CSc1nnc(NCc2ccccc2)s1)NC1CCS(=O)(=O)C1 (stereo not drawn),13%
5,CCOC(=O)C1CCCN(C(=O)c2cc3cc4ccc(OC)cc4nc3o2)C1 (stereo not drawn),6.1%
6,Cc1cc(C(=O)NC2CCCc3c2cnn3-c2cccc(C)c2C)c(C)o1 (stereo not drawn),20.4%
7,CC(NC(=O)c1ccc(C23CC4CC(CC(C4)C2)C3)cc1)C(=O)O (stereo not drawn),8.38%
8,O=C(NCC1CCCO1)C(c1cccs1)N(Cc1cccs1)C(=O)Cn1nnc(-c2cccs2)n1 (stereo not drawn),9.7%
9,CSc1sc(C(=O)OC(C)C)c2c1C(=O)CC(C)(C)C2,7.7%
10,Cn1c(CN2CCOCC2)nnc1SCc1cccc(F)c1,6.21%
11,COc1ccc(NC(=O)C/C(C)=N/NC(=O)c2cnccn2)cc1Cl,26.2%
12,Cc1ccc(C)c(OC(=O)c2cccc(S(=O)(=O)N3CCN(C)CC3)c2)c1,5.78%
13,CC1CC(C)CN(S(=O)(=O)c2ccc3c(c2)NC(=O)C(C)C(=O)N3)C1 (stereo not drawn),3.22%
14,COc1ccc(CC(=O)N(C)CC(=O)Nc2ccccc2Cl)cc1S(=O)(=O)N1CCOCC1,9.77%
15,CN(C)c1ccc(S(=O)(=O)NCC(=O)NCCC2=CCCCC2)cc1[N+](=O)[O-],2.6%
16,CCn1nnnc1NC(=O)c1cc(Cl)c(OC)c(Cl)c1,-2.59%
17,Cc1ccc(CN2C(=O)CCC2C(=O)NCc2ccc3c(c2)OCO3)cc1 (stereo not drawn),1.19%
18,Cc1cc(C(=O)Nc2cccc3cccnc23)ccc1[N+](=O)[O-],7.74%
19,CN(C)S(=O)(=O)c1cccc(NC(=O)CSc2cccc3cccnc23)c1,14.1%
20,Cc1[nH]n(C)c(=O)c1[N+](=O)[O-],8.01%
21,O=C(O)c1cccnc1SCc1cn2cc(Cl)ccc2n1,11.7%
22,CCN(CC)CCNC(=O)C1c2cc(OC)c(OC)cc2C(=O)N(C)C1c1cccs1 (stereo not drawn),7.41%

row,Structure (SMILES),"hERG current change (%, negative = inhibition) at 1uM"
1,O=C(COC(=O)c1ccc(S(=O)(=O)N2CCCC2)cc1)NCc1ccccc1,9.69%
2,O=C(CSCc1cnn(-c2ccccc2)c1-n1cccc1)NCc1ccccn1,-2.01%
3,CCOc1ccc(-c2nnc(-c3cccs3)o2)cc1OCC,10.2%
4,Fc1cccc(Cl)c1Cn1nnc2c(NCc3ccccn3)ncnc21,3.08%
5,O=C(O)c1ccc2c(=O)n(-c3ccccc3)c(=S)[nH]c2c1,8.52%
6,CCN(CC)C(=O)CSc1nc2cc3c(cc2c(=O)n1Cc1ccc2c(c1)OCO2)OCO3,5.9%
7,CC(=O)NCc1ccc(C(=O)O)cc1,11.7%
8,Cc1cc(C)c(N2C(=NC(=O)CCCC(=O)O)SC3CS(=O)(=O)CC32)c(C)c1 (stereo not drawn),16.5%
9,CCc1ccc(C(=O)COC(=O)CNC(=O)CNS(=O)(=O)c2ccccc2)cc1,-2.67%
10,COc1ccc(OCc2cc(C(=O)N3CCCC(CO)C3)no2)c2ccccc12 (stereo not drawn),-1.11%
11,CC(Sc1nn(-c2ccc(F)cc2)c(=S)s1)C(=O)c1c(N)n(C)c(=O)n(C)c1=O (stereo not drawn),15.5%
12,Cc1[nH]n(-c2ccccc2)c(=O)c1C=Nc1ccc(S(=O)(=O)N(C)C)cc1,9.29%
13,COc1ccc(C)cc1NC(=O)CN(C)S(=O)(=O)c1cccs1,-4.53%
14,COc1ccc(Nc2nc(-c3cccc([N+](=O)[O-])c3)nc3ccccc23)c(OC)c1,17.2%
15,O=c1oc2ccccc2n1CCn1c2ccccc2c2nc3ccccc3nc21,12.5%
16,CCCOC(=O)C1=C(C)NC2=C(C(=O)C(C(=O)OC)C(C)C2)C1c1ccc(N(C)C)cc1 (stereo not drawn),3.83%
17,Cn1c(CO)nc2cc(N)ccc21,6.75%
18,N#Cc1ccc2ccn(CC(=O)N3CCCc4ccccc43)c2c1,5.62%
19,COc1ccc(NC(=O)CN(C)C(=O)c2cn(-c3ccccc3)nc2-c2cccs2)cc1,4.14%
20,COc1ccc(Cc2noc(-c3ccc([N+](=O)[O-])cc3)n2)cc1OC,11.6%
21,CC(C(=O)OCC(=O)c1ccc([N+](=O)[O-])cc1)N1C(=O)C2C3CCC(C3)C2C1=O (stereo not drawn),9.29%
